Source: PubChem BioAssay AID1768 (National Center for Advancing Translational Sciences (NCATS), 2009)
In all, about 270,000 compounds went through this assay and about 620 (0.23%) were called active. This list was built around the results that the source calls inconclusive (neither active nor inactive); the mix of calls is not that of the screen. Calls follow the shape of the dose curve; as a rule, active = well fitted inhibition curve with a large enough effect in the polarisation, with a control signal flat (not every such curve was filed as active); inconclusive = small, poorly fitted or top-dose-only effect, or effect the other way, or a change in a side signal; inactive = no such curve, though single readings can be large or run the other way; the % refers to the polarisation. Potencies of inconclusive entries are doubtful fits and often do not repeat. “Side channel” marks fits to a control or component signal instead of the main read-out.
For FP activity change, negative = inhibition in this document: % of control where 0% means no effect.
Potency is read from the fitted curve at half-maximal effect; tags tell the direction and shape of the fitted curve or compound fluorescence and quenching.

Each molecule was assayed against Menin (Homo sapiens) (UniProt O00255) (assay: qHTS Assay for Inhibitors Targeting the Menin-MLL Interaction in MLL Related Leukemias: Competition With Texas Red Labeled MLL-derived Mutant Peptide). Settings: fluorescence polarization; FP activity change, negative = inhibition: at 61.6 µM (top of the series).
Sequence of UniProt O00255 (O00255 whole entry, looked up): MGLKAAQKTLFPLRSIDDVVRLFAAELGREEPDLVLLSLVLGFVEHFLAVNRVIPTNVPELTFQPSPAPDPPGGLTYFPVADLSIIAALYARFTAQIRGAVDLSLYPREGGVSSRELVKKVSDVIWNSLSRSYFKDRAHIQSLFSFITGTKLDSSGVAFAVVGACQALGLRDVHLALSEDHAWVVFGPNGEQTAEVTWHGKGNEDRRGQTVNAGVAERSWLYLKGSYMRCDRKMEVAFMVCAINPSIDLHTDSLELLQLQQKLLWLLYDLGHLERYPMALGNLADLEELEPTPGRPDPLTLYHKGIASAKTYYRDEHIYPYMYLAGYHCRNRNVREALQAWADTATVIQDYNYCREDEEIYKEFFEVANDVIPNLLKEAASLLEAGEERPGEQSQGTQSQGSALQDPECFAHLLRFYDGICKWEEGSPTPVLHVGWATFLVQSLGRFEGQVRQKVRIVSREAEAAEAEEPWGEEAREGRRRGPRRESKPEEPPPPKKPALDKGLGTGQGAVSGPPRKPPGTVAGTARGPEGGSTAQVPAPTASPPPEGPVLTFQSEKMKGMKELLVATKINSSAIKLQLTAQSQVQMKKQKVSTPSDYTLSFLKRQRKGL
In the case of CC(C)CNC(=O)CSc1n[nH]c(=O)n1CCc1ccccc1, the Potency is reported as inconclusive: 1.58 µM [inhibitor, full curve, poor fit].
In the case of C=CCN1C(=O)c2oc3ccccc3c(=O)c2C1c1ccc(O)c(OC)c1 (stereo unspecified), the Potency is reported as inconclusive: 28.2 µM [fluorescent, side channel, single point].
With N#CC(C#N)=c1ccc2c(c1)N1C3=C(CCCC3)CC3CCCCC31N=2 (stereo unspecified) the Potency was inconclusive: 0.708 µM [inhibitor, full curve, poor fit].
O=C(O)COc1ccc(-c2nc(-c3ccccc3)c(-c3ccccc3)[nH]2)cc1 was tested, and the Potency was inconclusive: 22.4 µM [quencher, side channel, single point].
With O=C(C[n+]1ccc(-c2nnc3n2CCC3)cc1)c1ccc(Cl)c(Cl)c1 the “FP activity change, negative = inhibition” value was inactive: -18.5%.
O=C(Nc1ccc(NC(=O)c2cccs2)cc1)c1ccccc1 was tested, and the Potency was inconclusive: 39.8 µM [fluorescent, side channel, single point].
With CC1=C(C(=O)N2CCOCC2)C(c2cccs2)NC(=O)N1 (stereo unspecified) the “FP activity change, negative = inhibition” value was inactive: 5.38%.
In the case of NC(=O)C1(N2CCCCC2)CCN(c2ccc3nnc(-c4ccccc4)n3n2)CC1, the Potency is reported as inconclusive: 35.5 µM [inhibitor, partial curve].
With CC(C)(C)C(=O)/C=C/c1ccc(Oc2ccccc2)cc1 the Potency was inconclusive: 39.8 µM [inhibitor, single point].
In the case of CCOC(=O)C1=C(CNCc2ccccc2Cl)NC(=O)NC1c1cccc([N+](=O)[O-])c1 (stereo unspecified), the Potency is reported as inconclusive: 6.31 µM [inhibitor, full curve].
In the case of Cc1cc(OCCSc2nnc(-c3cccs3)n2C)ccc1Cl, the Potency is reported as inconclusive: 0.708 µM [fluorescent, side channel, partial curve].
For Cc1c(CNCCc2ccc(Cl)cc2)c(C(=O)O)c(C)n1-c1ccccc1, the Potency was inconclusive: 25.1 µM [fluorescent, side channel, partial curve].
For CCCOc1ccc(/C=N/Nc2ccccc2[N+](=O)[O-])c(OCCC)c1, the Potency was inconclusive: 20 µM [quencher, side channel, partial curve].
With CCOP(=O)(OCC)c1nc(-c2cccc3ccccc23)oc1N1CCCCC1 the “FP activity change, negative = inhibition” value was inactive: -19.3%.
In the case of Cc1[nH]c2ccccc2c1C1=NNC(=Nc2ccc(F)cc2)SC1, the Potency is reported as inconclusive: 15.8 µM [quencher, side channel, partial curve].
For COc1ccc2oc(-c3cccc(NC(=O)CSc4ccc(Cl)cc4)c3)nc2c1, the Potency was inconclusive: 5.01 µM [quencher, side channel, partial curve].
With COc1cccc(NC(=O)CN(C)CC(=O)Nc2ccc(C)c([N+](=O)[O-])c2)c1 the Potency was inconclusive: 25.1 µM [inhibitor, single point].
With Cc1nc(Nc2ccc(Cl)cc2)c2nnn(Cc3ccccc3)c2n1 the Potency was inconclusive: 35.5 µM [inhibitor, single point].
With COc1ccc2nc(/C(C#N)=C\c3ccc(C(=O)O)cc3)[nH]c2c1 the Potency was inconclusive: 17.8 µM [quencher, side channel, partial curve].
Fc1ccc(NC(=S)NCCc2ccccc2)c(F)c1F was tested, and the Potency was inconclusive: 2.82 µM [inhibitor, full curve].
For COc1ccc(NC(=O)Nc2ccc(C)cc2OC(F)F)cc1OC, the Potency was inconclusive: 25.1 µM [quencher, side channel, single point].
For COc1cccc(N=Nc2ccc(O)c3ncccc23)c1, the Potency was inconclusive: 3.55 µM [quencher, side channel, partial curve].
For C(=C\c1ccco1)/c1nc2ccccc2[nH]1, the Potency was inconclusive: 10 µM [quencher, side channel, partial curve].
C/C(=C\c1ccco1)C1Nc2cccc3cccc(c23)N1 was tested, and the Potency was inconclusive: 8.91 µM [quencher, side channel, partial curve].
With COC(=O)C(C)N(C(=O)c1ccc(C(=O)c2ccccc2)cc1)c1c(C)cccc1C (stereo unspecified) the Potency was inconclusive: 2 µM [fluorescent, side channel, full curve].
In the case of Cc1ccc(-c2ccc(/C=C3\C(=O)ON=C3c3ccccc3)o2)c([N+](=O)[O-])c1, the Potency is reported as inconclusive: 10 µM [quencher, side channel, partial curve].
In the case of COc1cc(OC)c2c(-c3ccccc3)cc(=O)oc2c1C(CCN1CCCCC1)c1ccc2c(c1)OCO2 (stereo unspecified), the Potency is reported as inconclusive: 39.8 µM [inhibitor, single point].
O=C(NCc1ccc(F)cc1)C1CC(=O)N(CCc2ccccc2)C1 (stereo unspecified) was tested, and the Potency was inconclusive: 5.62 µM [inhibitor, full curve].
In the case of Cc1cccc(OCC(=O)Nc2nc3ccc([N+](=O)[O-])cc3s2)c1, the Potency is reported as inconclusive: 28.2 µM [quencher, side channel, single point].
CCCCCCCCCCOC(=O)Cn1c(COc2ccc(OC)cc2)[n+](C)c2ccccc21 was tested, and the Potency was inconclusive: 1.78 µM [fluorescent, side channel, full curve].
C/C(=N\N=C(/N)SC1CC(=O)N(c2ccc(Br)cc2)C1=O)c1cccs1 (stereo unspecified) was tested, and the Potency was inconclusive: 7.08 µM [quencher, side channel, partial curve].
For COC(=O)C1=C(C)NC(C)=C(C(=O)NCCCN2CCC(c3ccccc3)(c3ccccc3)CC2)C1c1ccc([N+](=O)[O-])cc1 (stereo unspecified), the “FP activity change, negative = inhibition” value was inactive: 0.717%.
In the case of CCC(=O)Nc1ccc(C(=O)NNC(=O)c2ccc(Cl)cc2)cc1, the Potency is reported as inconclusive: 35.5 µM [inhibitor, single point].
In the case of CCOc1ccccc1/C=C(/NC(=O)c1ccccc1)C(=O)N1CCCCC1, the Potency is reported as inconclusive: 8.91 µM [fluorescent, side channel, partial curve].
CCCCNCCCOc1ccc(C)cc1Br was tested, and the Potency was inconclusive: 28.2 µM [fluorescent, side channel, single point].
For CCn1c(=S)sc2c(=O)n(CC(=O)Nc3ccccc3C(F)(F)F)c(C)nc21, the Potency was inconclusive: 12.6 µM [fluorescent, side channel, partial curve].
